Measurements from patent US11000038B2, “Pyridone compounds and agricultural and horticultural fungicides containing the same as active ingredients” (priority 2017, dated 2021).

Assays:
[1] = system: rice blast fungi (Magnaporthe grisea); format: in vivo; details: rice blast, spray treatment of rice plants
[2] = system: tomato late blight fungi (Phytophthora infestans); format: in vivo; details: tomato late blight, spray treatment of tomato plants
[3] = system: cucumber anthracnose fungi (Colletotrichum orbiculare); assay: Test Example H: cucumber anthracnose, spray treatment of cucumber plants; details: cucumber anthracnose, 250 ppm spray (2.5 ml/pot), 6 to 10 days after inoculation

Compound	Test A control value [1]	Test F control value [2]	Test H control value [3]
Cc1c(Cl)cccc1-n1cc(Br)c(=O)c(Cl)c1-c1c(F)cc(F)cc1F [Compound 322]	H (H shows the control value of more than 50%)	L (L shows the control value of 50% or less)	H (H shows the control value of more than 50%)
Cc1c(Cl)cccc1-n1cc(Br)c(=O)c(Br)c1-c1c(F)cc(F)cc1F [Compound 323]	H (H shows the control value of more than 50%)	H (H shows the control value of more than 50%)	H (H shows the control value of more than 50%)
Cc1ccc([N+](=O)[O-])cc1-n1cc(Br)c(=O)c(Cl)c1-c1c(F)cc(F)cc1F [Compound 324]	H (H shows the control value of more than 50%)	H (H shows the control value of more than 50%)	H (H shows the control value of more than 50%)
Cc1ccc([N+](=O)[O-])cc1-n1cc(Br)c(=O)c(Br)c1-c1c(F)cc(F)cc1F [Compound 325]	H (H shows the control value of more than 50%)	L (L shows the control value of 50% or less)	H (H shows the control value of more than 50%)
CCc1ccccc1-n1cc(C)c(=O)c(C)c1-c1c(F)cc(F)cc1F [Compound 326]	H (H shows the control value of more than 50%)	L (L shows the control value of 50% or less)	H (H shows the control value of more than 50%)
CCc1c(-c2c(F)cc(F)cc2F)n(-c2ccccc2C)cc(C(C)=O)c1=O [Compound 327]	H (H shows the control value of more than 50%)	L (L shows the control value of 50% or less)	H (H shows the control value of more than 50%)
CCc1cn(-c2ccccc2C)c(-c2c(F)cc(F)cc2F)c(C)c1=O [Compound 328]	H (H shows the control value of more than 50%)	L (L shows the control value of 50% or less)	H (H shows the control value of more than 50%)
Cc1cc(Cl)ccc1-n1cc(Br)c(=O)c(Cl)c1-c1c(F)cc(F)cc1F [Compound 329]	H (H shows the control value of more than 50%)	L (L shows the control value of 50% or less)	H (H shows the control value of more than 50%)
Cc1cc(Cl)ccc1-n1cc(Br)c(=O)c(Br)c1-c1c(F)cc(F)cc1F [Compound 330]	H (H shows the control value of more than 50%)	L (L shows the control value of 50% or less)	L (L shows the control value of 50% or less)
Cc1cc(Cl)ccc1-n1cc(Cl)c(=O)c(Br)c1-c1c(F)cc(F)cc1F [Compound 331]	H (H shows the control value of more than 50%)	L (L shows the control value of 50% or less)	H (H shows the control value of more than 50%)
Cc1cc(Cl)ccc1-n1cc(Cl)c(=O)c(Cl)c1-c1c(F)cc(F)cc1F [Compound 332]	H (H shows the control value of more than 50%)	L (L shows the control value of 50% or less)	H (H shows the control value of more than 50%)
Cc1c(N)cccc1-n1cc(Br)c(=O)c(Cl)c1-c1c(F)cc(F)cc1F [Compound 333]	H (H shows the control value of more than 50%)	L (L shows the control value of 50% or less)	H (H shows the control value of more than 50%)
CNc1cccc(-n2cc(Br)c(=O)c(Cl)c2-c2c(F)cc(F)cc2F)c1C [Compound 334]	H (H shows the control value of more than 50%)	L (L shows the control value of 50% or less)	H (H shows the control value of more than 50%)
Cc1c(N(C)C)cccc1-n1cc(Br)c(=O)c(Cl)c1-c1c(F)cc(F)cc1F [Compound 335]	H (H shows the control value of more than 50%)	L (L shows the control value of 50% or less)	L (L shows the control value of 50% or less)
Cc1ccc(C#N)cc1-n1cc(Br)c(=O)c(Cl)c1-c1c(F)cc(F)cc1F [Compound 336]	H (H shows the control value of more than 50%)	L (L shows the control value of 50% or less)	H (H shows the control value of more than 50%)
Cc1ccc(C#N)cc1-n1cc(Br)c(=O)c(Br)c1-c1c(F)cc(F)cc1F [Compound 337]	H (H shows the control value of more than 50%)	L (L shows the control value of 50% or less)	L (L shows the control value of 50% or less)
CCc1ccccc1-n1cc(C)c(=O)c(C)c1-c1c(F)cc(OC)cc1F [Compound 338]	H (H shows the control value of more than 50%)	L (L shows the control value of 50% or less)	H (H shows the control value of more than 50%)

Compound	Test A control value [1]	Test F control value [2]	Test H control value [3]
CCc1ccccc1-n1cc(Cl)c(=O)c(Cl)c1-c1c(F)cc(F)cc1F [Compound 339]	H (H shows the control value of more than 50%)	L (L shows the control value of 50% or less)	H (H shows the control value of more than 50%)
C=Cc1cn(-c2ccccc2C)c(-c2c(F)cc(F)cc2F)c(C)c1=O [Compound 340]	H (H shows the control value of more than 50%)	L (L shows the control value of 50% or less)	H (H shows the control value of more than 50%)
Cc1ccccc1-n1cc(Br)c(=O)c(CC(F)(F)F)c1-c1c(F)cc(F)cc1F [Compound 341]	H (H shows the control value of more than 50%)	L (L shows the control value of 50% or less)	L (L shows the control value of 50% or less)
Cc1cccc(C)c1-n1cc(Br)c(=O)c(Cl)c1-c1ccc(F)cc1 [Compound 342]	L (L shows the control value of 50% or less)	L (L shows the control value of 50% or less)	H (H shows the control value of more than 50%)
Cc1cccc(C)c1-n1cc(Br)c(=O)c(Br)c1-c1ccc(F)cc1 [Compound 343]	L (L shows the control value of 50% or less)	L (L shows the control value of 50% or less)	H (H shows the control value of more than 50%)
Cc1cccc(C)c1-n1cc(Cl)c(=O)c(Br)c1-c1ccc(F)cc1 [Compound 344]	L (L shows the control value of 50% or less)	L (L shows the control value of 50% or less)	H (H shows the control value of more than 50%)
Cc1cccc(C)c1-n1cc(Cl)c(=O)c(Cl)c1-c1ccc(F)cc1 [Compound 345]	L (L shows the control value of 50% or less)	L (L shows the control value of 50% or less)	H (H shows the control value of more than 50%)
Cc1c(Br)cccc1-n1cc(Br)c(=O)c(Cl)c1-c1c(F)cc(F)cc1F [Compound 346]	H (H shows the control value of more than 50%)	L (L shows the control value of 50% or less)	H (H shows the control value of more than 50%)
Cc1c(Br)cccc1-n1cc(Br)c(=O)c(Br)c1-c1c(F)cc(F)cc1F [Compound 347]	H (H shows the control value of more than 50%)	L (L shows the control value of 50% or less)	H (H shows the control value of more than 50%)
Cc1ccc(N)cc1-n1cc(Br)c(=O)c(Cl)c1-c1c(F)cc(F)cc1F [Compound 348]	L (L shows the control value of 50% or less)	L (L shows the control value of 50% or less)	L (L shows the control value of 50% or less)
CCc1ccccc1-n1cc(Cl)c(=O)c(Br)c1-c1c(F)cc(F)cc1F [Compound 349]	H (H shows the control value of more than 50%)	L (L shows the control value of 50% or less)	H (H shows the control value of more than 50%)
CCc1ccccc1-n1cc(Br)c(=O)c(Cl)c1-c1c(F)cc(F)cc1F [Compound 350]	H (H shows the control value of more than 50%)	L (L shows the control value of 50% or less)	H (H shows the control value of more than 50%)
Cc1cn(-c2ccccc2F)c(-c2c(F)cccc2F)c(C)c1=O [Compound 351]	H (H shows the control value of more than 50%)	L (L shows the control value of 50% or less)	H (H shows the control value of more than 50%)
CCc1ccccc1-n1cc(Br)c(=O)c(Br)c1-c1c(F)cc(F)cc1F [Compound 352]	H (H shows the control value of more than 50%)	L (L shows the control value of 50% or less)	H (H shows the control value of more than 50%)
Cc1ccccc1-n1cc(C)c(=O)c(C)c1-c1ccccc1F [Compound 353]	H (H shows the control value of more than 50%)	L (L shows the control value of 50% or less)	H (H shows the control value of more than 50%)
Cc1ccccc1-n1cc(C)c(=O)c(C)c1-c1ccccc1Cl [Compound 354]	H (H shows the control value of more than 50%)	L (L shows the control value of 50% or less)	H (H shows the control value of more than 50%)
